# Results reported in the supplement of paper PMC8728848.
# The other results are listed elsewhere or left out.
# B1: exo-alpha-sialidase (Propionibacterium acnes), Q6A7G1 (protein)
# chain: GSHMSGRAPAPVAATTQPKLVTGDITSTDQSGTNLFFGKKIVRNARGAIMKVDRTWPAAVPAPLPDVRADSSTRMLLGPVVDLAVNEHPEGVFYRIPALATASNGDLLASYDLRPGSAGDAPNPNSIVQRRSRDNGRTWGPQTVIHAGTPGRRKVGYSDPSYLVDPATGRILNFHVKSYDRGFATSEVGTDPDDRHVLHAEVSTSTDNGHTWTHRDITREITSDPTTRTRFVASGQGIALLHGPHAGRLIAQMTVRNSVGQQAQSIYSDDHGITWHAGNPVGRMMDENKVVELSDGTLMLNSRDAARSGRRKVAYSQDGGLTWGPVKLVDDLIDPTNNAQIIRAYPNARAGSAKARILLFTNARNATERVNGTLSVSCDDGRTWVSHQTYMPGEVGYTTAAVQSDGALGVLWERDGIRYSTIPMGWLNSVCPLAPSGRPTSGKPTSGTSLPPTAT
# Key:
# Test in all cases: glycan array binding signal (z-score within array); higher = stronger binding
# Details in all cases: glycan notation: IUPAC condensed, linker removed
# Glc(a1-6)Glc(a1-6)Glc = biological target: Glc(a1-6)Glc(a1-6)Glc
# In short: (§1)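 The binding signal is a Z-score computed within each array and averaged over linkers. Arrays of the same protein sequence at different concentrations or buffers were also averaged together. Data originate from 3228 arrays in the Consortium for Functional Glycomics database, kept only where the protein sequence was available.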
# Glc(b1-4)Glc = biological target: Glc(b1-4)Glc
# In short: as §1
# Glc(b1-6)Glc = biological target: Glc(b1-6)Glc
# In short: as §1
# GlcA(b1-3)Gal = biological target: GlcA(b1-3)Gal
# In short: as §1
# GlcA(b1-3)GlcNAc = biological target: GlcA(b1-3)GlcNAc
# In short: as §1
# GlcA(b1-6)Gal = biological target: GlcA(b1-6)Gal
# In short: as §1
# [1] = biological target: GlcNAc(a1-3)Gal(b1-4)GlcNAc
# In short: as §1
# [2] = biological target: GlcNAc(a1-4)Gal(b1-3)GlcNAc
# In short: as §1
# [3] = biological target: GlcNAc(a1-4)Gal(b1-4)GalNAc
# In short: as §1
# [4] = biological target: GlcNAc(a1-4)Gal(b1-4)GlcNAc
# In short: as §1
# [5] = biological target: GlcNAc(a1-4)Gal(b1-4)GlcNAc(b1-3)Gal(b1-4)Glc
# In short: as §1
# [6] = biological target: GlcNAc(a1-4)Gal(b1-4)GlcNAc(b1-3)Gal(b1-4)GlcNAc
# In short: as §1
# [7] = biological target: GlcNAc(a1-4)Gal(b1-4)GlcNAc(b1-3)Gal(b1-4)GlcNAc(b1-3)Gal(b1-4)GlcNAc
# In short: as §1
# [8] = biological target: GlcNAc(a1-4)Gal(b1-4)GlcNAc(b1-3)Gal(b1-4)[Fuc(a1-3)]GlcNAc(b1-3)Gal(b1-4)[Fuc(a1-3)]GlcNAc
# In short: as §1
# [9] = biological target: GlcNAc(a1-6)Gal(b1-4)GlcNAc
# In short: as §1
# [10] = biological target: GlcNAc(b1-2)Gal(b1-3)GalNAc
# In short: as §1
# [11] = biological target: GlcNAc(b1-2)Man(a1-3)[GlcNAc(b1-2)Man(a1-6)]Man(b1-4)GlcNAc(b1-4)GlcNAc
# In short: as §1
# [12] = biological target: GlcNAc(b1-2)Man(a1-3)[GlcNAc(b1-2)Man(a1-6)]Man(b1-4)GlcNAc(b1-4)[Fuc(a1-6)]GlcNAc
# In short: as §1
# [13] = biological target: GlcNAc(b1-2)[GlcNAc(b1-4)]Man(a1-3)[GlcNAc(b1-2)Man(a1-6)]Man(b1-4)GlcNAc(b1-4)GlcNAc
# In short: as §1
# GlcNAc(b1-3)Gal = biological target: GlcNAc(b1-3)Gal
# In short: as §1
# [14] = biological target: GlcNAc(b1-3)Gal(b1-3)GalNAc
# In short: as §1
# GlcNAc(b1-3)Gal(b1-4)Glc = biological target: GlcNAc(b1-3)Gal(b1-4)Glc
# In short: as §1
# [15] = biological target: GlcNAc(b1-3)Gal(b1-4)GlcNAc
# In short: as §1
# [16] = biological target: GlcNAc(b1-3)Gal(b1-4)GlcNAc(b1-3)Gal(b1-4)GlcNAc
# In short: as §1
# GlcNAc(b1-3)GalNAc = biological target: GlcNAc(b1-3)GalNAc
# In short: as §1
# GlcNAc(b1-3)Man = biological target: GlcNAc(b1-3)Man
# In short: as §1
# [17] = biological target: GlcNAc(b1-3)[GlcNAc(b1-4)][GlcNAc(b1-6)]GlcNAc
# In short: as §1
# [18] = biological target: GlcNAc(b1-3)[GlcNAc(b1-6)]Gal(b1-4)GlcNAc
# In short: as §1
# [19] = biological target: GlcNAc(b1-3)[GlcNAc(b1-6)]GalNAc
# In short: as §1
# [20] = biological target: GlcNAc(b1-4)Gal(b1-4)GlcNAc
# In short: as §1
# GlcNAc(b1-4)GlcNAc = biological target: GlcNAc(b1-4)GlcNAc
# In short: as §1
# [21] = biological target: GlcNAc(b1-4)GlcNAc(b1-4)GlcNAc
# In short: as §1
# [22] = biological target: GlcNAc(b1-4)GlcNAc(b1-4)GlcNAc(b1-4)GlcNAc(b1-4)GlcNAc
# In short: as §1
# [23] = biological target: GlcNAc(b1-4)GlcNAc(b1-4)GlcNAc(b1-4)GlcNAc(b1-4)GlcNAc(b1-4)GlcNAc
# In short: as §1
# [24] = biological target: GlcNAc(b1-4)[GlcNAc(b1-6)]GalNAc
# In short: as §1
# [25] = biological target: GlcNAc(b1-6)Gal(b1-4)GlcNAc
# In short: as §1
# GlcNAc(b1-6)GalNAc = biological target: GlcNAc(b1-6)GalNAc
# In short: as §1
# GlcNAc3Prop(b1-4)GlcNAc = biological target: GlcNAc3Prop(b1-4)GlcNAc
# In short: as §1
binder,measurement,setting,value
B1,glycan array binding signal (z-score),Glc(a1-6)Glc(a1-6)Glc,-0.324
same,glycan array binding signal (z-score),Glc(b1-4)Glc,-0.354
same,glycan array binding signal (z-score),Glc(b1-6)Glc,-0.318
same,glycan array binding signal (z-score),GlcA(b1-3)Gal,-0.304
same,glycan array binding signal (z-score),GlcA(b1-3)GlcNAc,-0.335
same,glycan array binding signal (z-score),GlcA(b1-6)Gal,-0.343
same,glycan array binding signal (z-score),[1],-0.369
same,glycan array binding signal (z-score),[2],-0.32
same,glycan array binding signal (z-score),[3],-0.202
same,glycan array binding signal (z-score),[4],-0.264
same,glycan array binding signal (z-score),[5],-0.373
same,glycan array binding signal (z-score),[6],-0.342
same,glycan array binding signal (z-score),[7],-0.346
same,glycan array binding signal (z-score),[8],-0.257
same,glycan array binding signal (z-score),[9],-0.377
same,glycan array binding signal (z-score),[10],-0.326
same,glycan array binding signal (z-score),[11],-0.369
same,glycan array binding signal (z-score),[12],-0.33
same,glycan array binding signal (z-score),[13],-0.373
same,glycan array binding signal (z-score),GlcNAc(b1-3)Gal,-0.363
same,glycan array binding signal (z-score),[14],-0.279
same,glycan array binding signal (z-score),GlcNAc(b1-3)Gal(b1-4)Glc,-0.353
same,glycan array binding signal (z-score),[15],-0.344
same,glycan array binding signal (z-score),[16],-0.356
same,glycan array binding signal (z-score),GlcNAc(b1-3)GalNAc,-0.358
same,glycan array binding signal (z-score),GlcNAc(b1-3)Man,-0.338
same,glycan array binding signal (z-score),[17],-0.355
same,glycan array binding signal (z-score),[18],-0.367
same,glycan array binding signal (z-score),[19],-0.368
same,glycan array binding signal (z-score),[20],-0.362
same,glycan array binding signal (z-score),GlcNAc(b1-4)GlcNAc,-0.364
same,glycan array binding signal (z-score),[21],-0.37
same,glycan array binding signal (z-score),[22],-0.243
same,glycan array binding signal (z-score),[23],-0.341
same,glycan array binding signal (z-score),[24],-0.375
same,glycan array binding signal (z-score),[25],-0.291
same,glycan array binding signal (z-score),GlcNAc(b1-6)GalNAc,-0.33
same,glycan array binding signal (z-score),GlcNAc3Prop(b1-4)GlcNAc,-0.35
